# Assay results taken from the supplement of paper PMC8728848.
# Some of the results follow.
# B1: Epa12 (Candida glabrata) (protein)
# chain: MGSSHHHHHHSSGLVPRGSHMLEPDNSLQIFDSFLSNPSKYPLGCSPKITNPKKGLSMELYSYPYRKKGSHPCWDPAYLDPNFPRVGYKKNKLIARVDGVSGDINFNFHPKRQCTPIADYLPPNFNYNEPITTTNFTMLLYGYFKPKVTGLHTFDISADDLLFMNFGAGNAFDCCRRDSTADTFGNYVAWAIWGRRIVRNKLTVRLDKGIYYPLRLFFNNRDYYGQMRLTFKTEHGSERITDFSDYFFSVDDTSEGCPGLITYESECADVKSSTVLETDYITIQAEKE
# Key:
# Experiment in all cases: glycan array binding signal (z-score within array); higher = stronger binding
# Settings in all cases: glycan notation: IUPAC condensed, linker removed
# [1] = biological target: Neu5Ac(a2-6)Gal(b1-4)GlcNAc(b1-6)GalNAc
# In short: (§1)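 Glycan array data were curated from 3228 arrays in the Consortium for Functional Glycomics database and kept only where the protein sequence was available. Glycan names were converted to IUPAC-condensed notation, and columns mapping to the same glycan were averaged. The binding signal is a within-array Z-score, averaged across arrays of the same protein sequence at different concentrations or buffers and across linkers. Negative Z-scores can be read as non-binding.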
# [2] = biological target: Neu5Ac(a2-6)Gal(b1-4)GlcNAc(b1-6)[Gal(b1-3)GlcNAc(b1-3)]Gal(b1-4)Glc
# In short: as §1
# [3] = biological target: Neu5Ac(a2-6)Gal(b1-4)GlcNAc(b1-6)[Gal(b1-3)]GalNAc
# In short: as §1
# [4] = biological target: Neu5Ac(a2-6)Gal(b1-4)GlcNAc6S
# In short: as §1
# [5] = biological target: Neu5Ac(a2-6)GalNAc
# In short: as §1
# [6] = biological target: Neu5Ac(a2-6)GalNAc(b1-4)GlcNAc
# In short: as §1
# [7] = biological target: Neu5Ac(a2-6)GalNAc(b1-4)GlcNAc6S
# In short: as §1
# [8] = biological target: Neu5Ac(a2-6)GlcNAc(b1-4)GlcNAc
# In short: as §1
# [9] = biological target: Neu5Ac(a2-6)GlcNAc(b1-4)GlcNAc(b1-4)GlcNAc
# In short: as §1
# [10] = biological target: Neu5Ac(a2-8)Neu5Ac
# In short: as §1
# [11] = biological target: Neu5Ac(a2-8)Neu5Ac(a2-3)Gal(b1-3)GalNAc(b1-4)[Neu5Ac(a2-3)]Gal(b1-4)Glc
# In short: as §1
# [12] = biological target: Neu5Ac(a2-8)Neu5Ac(a2-3)Gal(b1-3)GalNAc(b1-4)[Neu5Ac(a2-8)Neu5Ac(a2-3)]Gal(b1-4)Glc
# In short: as §1
# [13] = biological target: Neu5Ac(a2-8)Neu5Ac(a2-3)Gal(b1-4)Glc
# In short: as §1
# [14] = biological target: Neu5Ac(a2-8)Neu5Ac(a2-3)Gal(b1-4)GlcNAc
# In short: as §1
# [15] = biological target: Neu5Ac(a2-8)Neu5Ac(a2-3)[Gal(b1-3)GalNAc(b1-4)]Gal(b1-4)Glc
# In short: as §1
# [16] = biological target: Neu5Ac(a2-8)Neu5Ac(a2-3)[GalNAc(b1-4)]Gal(b1-4)Glc
# In short: as §1
# [17] = biological target: Neu5Ac(a2-8)Neu5Ac(a2-8)Neu5Ac
# In short: as §1
# [18] = biological target: Neu5Ac(a2-8)Neu5Ac(a2-8)Neu5Ac(a2-3)Gal(b1-4)Glc
# In short: as §1
# [19] = biological target: Neu5Ac(a2-8)Neu5Ac(a2-8)Neu5Ac(a2-3)[Gal(b1-3)GalNAc(b1-4)]Gal(b1-4)Glc
# In short: as §1
# [20] = biological target: Neu5Ac(a2-8)Neu5Ac(a2-8)Neu5Ac(a2-3)[GalNAc(b1-4)]Gal(b1-4)Glc
# In short: as §1
# [21] = biological target: Neu5Ac(a2-8)Neu5Ac(a2-8)Neu5Ac(a2-8)Neu5Ac(a2-3)[GalNAc(b1-4)]Gal(b1-4)Glc
# In short: as §1
# [22] = biological target: Neu5Ac(a2-8)Neu5Gc(a2-3)Gal(b1-4)GlcNAc
# In short: as §1
# [23] = biological target: Neu5Ac(b2-6)Gal(b1-4)GlcNAc
# In short: as §1
# [24] = biological target: Neu5Ac(b2-6)GalNAc
# In short: as §1
# [25] = biological target: Neu5Ac9Ac(a2-3)Gal(b1-3)GlcNAc
# In short: as §1
# [26] = biological target: Neu5Ac9Ac(a2-3)Gal(b1-4)GlcNAc
# In short: as §1
# [27] = biological target: Neu5Ac9Ac(a2-6)Gal(b1-4)GlcNAc
# In short: as §1
# [28] = biological target: Neu5Gc(a2-3)Gal(b1-3)GlcNAc
# In short: as §1
# [29] = biological target: Neu5Gc(a2-3)Gal(b1-3)[Fuc(a1-4)]GlcNAc
# In short: as §1
# [30] = biological target: Neu5Gc(a2-3)Gal(b1-4)Glc
# In short: as §1
# [31] = biological target: Neu5Gc(a2-3)Gal(b1-4)GlcNAc
# In short: as §1
# [32] = biological target: Neu5Gc(a2-3)Gal(b1-4)GlcNAc(b1-3)Gal(b1-4)GlcNAc(b1-2)Man(a1-3)[Neu5Gc(a2-3)Gal(b1-4)GlcNAc(b1-3)Gal(b1-4)GlcNAc(b1-2)Man(a1-6)]Man(b1-4)GlcNAc(b1-4)GlcNAc
# In short: as §1
# [33] = biological target: Neu5Gc(a2-3)Gal(b1-4)[Fuc(a1-3)]GlcNAc
# In short: as §1
# [34] = biological target: Neu5Gc(a2-3)Gal(b1-4)[Fuc(a1-4)]GlcNAc
# In short: as §1
# [35] = biological target: Neu5Gc(a2-6)Gal(b1-4)GlcNAc
# In short: as §1
# [36] = biological target: Neu5Gc(a2-6)GalNAc
# In short: as §1
# [37] = biological target: Neu5Gc(a2-8)Neu5Ac(a2-3)Gal(b1-4)GlcNAc
# In short: as §1
# [38] = biological target: Neu5Gc(a2-8)Neu5Gc(a2-3)Gal(b1-4)GlcNAc
# In short: as §1
binder,measurement,setting,value
B1,glycan array binding signal (z-score),[1],-0.256
same,glycan array binding signal (z-score),[2],-0.131
same,glycan array binding signal (z-score),[3],-0.107
same,glycan array binding signal (z-score),[4],-0.234
same,glycan array binding signal (z-score),[5],-0.328
same,glycan array binding signal (z-score),[6],-0.339
same,glycan array binding signal (z-score),[7],-0.36
same,glycan array binding signal (z-score),[8],-0.331
same,glycan array binding signal (z-score),[9],-0.447
same,glycan array binding signal (z-score),[10],-0.362
same,glycan array binding signal (z-score),[11],-0.255
same,glycan array binding signal (z-score),[12],0.219
same,glycan array binding signal (z-score),[13],-0.253
same,glycan array binding signal (z-score),[14],-0.285
same,glycan array binding signal (z-score),[15],-0.268
same,glycan array binding signal (z-score),[16],-0.25
same,glycan array binding signal (z-score),[17],-0.28
same,glycan array binding signal (z-score),[18],-0.406
same,glycan array binding signal (z-score),[19],-0.408
same,glycan array binding signal (z-score),[20],-0.232
same,glycan array binding signal (z-score),[21],-0.258
same,glycan array binding signal (z-score),[22],-0.413
same,glycan array binding signal (z-score),[23],-0.303
same,glycan array binding signal (z-score),[24],-0.396
same,glycan array binding signal (z-score),[25],-0.298
same,glycan array binding signal (z-score),[26],-0.376
same,glycan array binding signal (z-score),[27],-0.252
same,glycan array binding signal (z-score),[28],-0.286
same,glycan array binding signal (z-score),[29],-0.309
same,glycan array binding signal (z-score),[30],-0.277
same,glycan array binding signal (z-score),[31],-0.288
same,glycan array binding signal (z-score),[32],-0.366
same,glycan array binding signal (z-score),[33],-0.349
same,glycan array binding signal (z-score),[34],-0.243
same,glycan array binding signal (z-score),[35],-0.175
same,glycan array binding signal (z-score),[36],-0.309
same,glycan array binding signal (z-score),[37],-0.358
same,glycan array binding signal (z-score),[38],-0.374
